# The whole screen tested about 150,000 compounds, of which about 540 (0.36%) showed an effect of 50% or more. The list shows a part of the results.
# Tested on: Plasmodium falciparum
# Test: Primary screen in NF54 nanoGlo assay, in single point, at 2uM, 72h; a lower Z score goes with more inhibition
# Assay type: functional, Erythrocyte
# Conditions: timepoint 72 hour
Compound,% Inhibition [%],Z score
FC(F)(F)c1ccc(-c2cc(C(F)(F)Cl)n3nc(N4CCN(c5ccccc5)CC4)nc3n2)cc1,3,-0.38
CCc1nccn1CCC(=O)N(C)Cc1cc(-c2ccccc2)n[nH]1,-11,1.55
O=S(=O)(N[C@H]1CC[C@H](Oc2ccccn2)CC1)C1CC1,-11,1.31
COc1ccc(NC(=O)c2nc(Nc3ccccc3)c3ccccc3n2)cc1,22,-4.09
O=C(NCCC1(O)CCN(c2ccccc2)CC1)c1[nH]ccc1C1CC1,-8,1.22
OCC[C@H]1CN(c2noc(-c3ccccc3)n2)CCN1CCc1ccccc1,-3,0.25
Cn1ccnc1C(Nc1nc(C2CCOCC2)ns1)c1nccn1C,-8,1.48
O=C(c1ccncc1)N1N=C(C2CC2)C[C@]1(O)C(F)(F)F,-4,0.53
Cc1ccc2nc(-c3ccc(NC(=O)c4cccs4)cc3)oc2c1,-12,1.63
CCCn1nnnc1Cn1c(C)nnc1-c1cccc(C#N)c1,-12,1.09
O=C(CC[C@@H]1N=C(O)c2ccccc2NC1=O)NCCn1cnc2cc(Cl)ccc21,-12,1.55
CC1(C)CN(Cc2cccc(F)c2F)CC[S@+]1[O-],2,-0.18
O=C(NCc1ccccc1)c1coc(CN(Cc2ccccc2)Cc2ccc(Cl)cc2Cl)n1,1,-0.2
C[C@H]1CCCN(C(=O)CCc2ccc3c(c2)OCO3)C1,-13,1.62
CC1(C)C[C@@H](O)CCN(CCn2cnc3ccccc3c2=O)C1,-5,0.92
Cc1c(C(=O)NCCCN(C)C)nnn1-c1cccc2cccnc12,4,-0.7
CC(=O)N1CCN(Cc2ncnn2CCF)CC12CCCCC2,-6,0.77
Cc1c(C(=O)O[C@@H](C)c2nc3ccccc3o2)cnn1C,-5,0.59
Cc1cc(C)c(CNC(=O)[C@H](O)c2ccccc2)cn1,-14,1.37
CC(C)n1cccc1C(=O)NCCc1csc(N)n1,3,-0.53
Cc1noc(CNC(=O)NCCC[C@H]2CCCCO2)n1,-9,1.01

Compound,% Inhibition [%],Z score
CCO[C@H]1CN(Cc2cccc3nonc23)C[C@@H]1O,7,-1.26
Cc1cccc(O[C@H]2COCCN(Cc3cnn(C)c3)C2)n1,-4,0.52
Cc1nc[nH]c1-c1nccn1CCc1ccc(S(N)(=O)=O)cc1,-14,2.03
COc1ccc([C@@H]2C=C(c3ccc(Cl)cc3)N=C3NC(N4C(=O)c5ccccc5C4=O)=NN32)cc1,-6,0.61
O=C(c1nnn2c1CO[C@H](c1ccccc1)C2)N1CCN(c2ncccn2)CC1,-5,0.6
CCCCN(CC(N)=O)Cc1cc(C)ccc1OC,1,-0.15
C=CCn1cc(-c2cc(-c3cc(F)cc(F)c3)nc(N)c2C#N)cn1,-12,1.31
CCCc1cc(C(=O)NCc2ccc3c(c2)OCO3)cs1,-9,1.23
CC(=O)Nc1ccc(Nc2cc(Oc3ccc(Br)cc3)c(S(=O)(=O)C(F)(F)F)cc2S(=O)(=O)C(F)(F)F)cc1,-5,0.48
CCN1C(=O)C(=O)N(Cc2coc(-c3ccc(C)cc3C)n2)C1=O,0,0.07
C#CCCC1(CCC(=O)N2CCC[C@H]3O[C@@H](c4ccccc4)C[C@H]32)N=N1,-1,0.15
COc1ccc(C(=O)N2CC(n3ccnc3)C2)cc1F,-9,1.15
CCOCCN1CCN(c2nn3cc(C)nc3s2)C[C@@H]1CC,-13,1.87
COc1ccnc(N2CCN(S(C)(=O)=O)c3ccccc3C2)n1,1,-0.22
CNC(=O)C1CCCN1C(=O)NC(c1ccccn1)C1CCCC1 (stereo unspecified),0,-0.01
Cc1ccc(S(=O)(=O)N2CCN([C@@H](C)c3nccs3)CC2)o1,-5,0.46
Cc1ccc2nc(CN3CCN(C(=O)Nc4ccc(Br)c(C)c4)CC3)oc2c1,-23,2.02
Cc1ccc(CN2C[C@@H](CO)[C@H](NC(=O)c3ccccc3)C2)nc1,-17,2.33
Cc1c(-c2noc(-c3cccnc3)n2)nnn1Cc1cccc(F)c1,-3,0.6
Cc1nc(-c2ccc(C)c(NC(=O)CN3CC(C)OCC3C)c2)n[nH]1 (stereo unspecified),-1,0.17
CCc1ccc(CN2CCC[C@@](CO)(CC3CC3)C2)nc1,-8,1.59

Compound,% Inhibition [%],Z score
C[C@H](NC(=O)Cc1cccc2ccccc12)c1ccco1,-44,5.15
CC(=O)N1CCC(CNc2nc(N)nc(C)c2Cl)CC1,-1,0.14
O=C1CCC(C(=O)N2CC[C@@]3(CCCN(CC4CCC4)C3=O)C2)=NN1,-12,1.32
COc1ccc(CN2CCNC(=O)[C@@H]2CC(=O)N2CCc3ccccc3C2)cc1C,-1,0.27
CCOc1ccc(NC2=N[C@H](C(=O)NCc3ccccc3)CC(=O)N2)cc1,-8,1.02
Cc1c(C(=O)N2CCN(S(=O)(=O)c3ccccc3)CC2)oc2c1ccc1ccccc12,-5,0.75
CC(C)(C)c1cc(CN2C[C@H](C(=O)O)[C@@H](c3ccc4c(c3)OCO4)C2)n[nH]1,-2,0.3
c1ccc(Nc2c3ccccc3c(Nc3ccccc3)c3ccccc23)cc1,-1,0.17
CC[C@@H](c1ccccc1)S(=O)(=O)Cc1nc(C2CC2)n[nH]1,-7,0.67
O=S1(=O)CCC2(CC1)C[C@@H]2c1nc(C2(c3ccccc3)CCOCC2)no1,2,-0.39
Cc1cc(F)cc(C(=O)Nc2cc(-c3cccnc3)nn2CCO)c1,14,-1.45
CS(=O)(=O)c1ccc(OC[C@H]2C[C@@H](NC(=O)c3ccccc3)[C@H](O)[C@@H]2O)cc1,14,-2.19
CCn1ccc(-c2nnc(Nc3ccn(Cc4c(F)cccc4Cl)n3)s2)n1,9,-1.31
Cc1cc(C)cc(-n2ncc3c(N4CCCCCC4)ncnc32)c1,-17,2.03
CCc1nc(-c2cc3ccccc3o2)n(CC(C)(C)O)n1,-11,2.26
Cc1cccc(CN(C)C(=O)c2onc3c2CCCC3)n1,-1,0.17
Cc1cccnc1NC(=O)N(C)CCCOCc1ccccc1,2,-0.19
O=C(NCc1cn(-c2cccnc2)nn1)c1cccc(Oc2ccc(F)cc2)c1,2,-0.24
Cc1nnc(N[C@H]2c3ccccc3C[C@H]2O)c(C#N)c1C,-3,0.38
CC(C)N1CC(NC(=O)NCC(O)c2ccccc2F)CC1=O (stereo unspecified),-18,1.52
Cc1ccc(C(=O)NCc2ccccn2)s1,-3,0.38

Compound,% Inhibition [%],Z score
COc1c(C)cc(CN[C@@H](C)c2nnc3n2CCCCC3)cc1C,2,-0.44
CN(C[C@H]1CCCCO1)C(=O)Cn1ccc2ccccc2c1=O,-11,1.07
CN(C[C@H]1CCCCN1C)C(=O)c1csc(N)n1,-8,1.05
COc1ccc(-c2noc(-c3csc(CCN)n3)n2)cc1OC,-11,1.93
COc1cccc(-c2nnc(NCc3cccc(C#N)c3)o2)c1OC,-16,2.29
CCOC(=O)C1CCCN(C2CCN(C(=O)CCC3(Cc4ccc(C)cc4)CCC(=O)N3)CC2)C1 (stereo unspecified),-5,0.68
Cc1ccc(C)n1CCC(=O)NC[C@@H]1CCCN2CCCC[C@H]12,-7,0.85
COCCn1c(N)c(N(CCCOc2ccccc2)Cc2ccccc2)c(=O)[nH]c1=O,-10,2
CCOC(=O)C[C@](C)(NCCC1OCCCO1)c1ccccc1,2,-0.34
O=C(Cn1ccnc1-c1ccnc(N2CCCC2)c1)NC1CCCCC1,-6,0.9
COC(C(=O)N(CC1CCCO1)c1ccc(Br)cc1)C1CCOC1 (stereo unspecified),-11,2.15
Cn1cc(C#N)c(NS(=O)(=O)CC2CCCC2)n1,-8,1.59
Cc1cnn(CCc2nc(CC(C)C)nn2C(C)C)c1,2,-0.4
Cc1c(C(=O)Nc2nc3c(s2)Cc2ccccc2-3)ccc2cncn12,-21,2.57
Cc1cc(-c2cc(NC(=O)COc3cccc(C)c3C)n([C@H]3CCS(=O)(=O)C3)n2)ccc1OC(C)C,6,-0.85
CN1[C@@H]2CCN(C(=O)c3cc(F)ccc3F)C[C@@]2(C(=O)N2CCCC2)CCS1(=O)=O,-14,1.95
Cc1nc(C)c(CNC(=O)c2c(O)cccc2O)s1,-14,1.91
CCn1nc(C)c(-c2c[nH]c([C@H]3CC(=O)N(C4CCCC4)C3)n2)c1C,-9,1.17
Cc1nnc(CN2CCCC2C2CCCC2O)s1 (stereo unspecified),-8,1.24
COc1ccc(NC(=O)Cn2nc(Nc3ccccc3)c(S(=O)(=O)c3ccccc3)c2N)cc1OC,-10,1.24
